From patent publication US10299477B2 (priority 2015, dated 2019)

Columns and labels:
Format in all cases: in vivo
[1] = system: Botrytis cinerea; experiment: Test Example B: Gray mold on tomato; conditions: for Test B control value (gray mold on tomato): preventive, control value class; for Test B (control value class, gray mold on tomato): in vivo
Description: [Test Example B] Gray Mold on Tomato
Seeds of a test plant (tomato variety: Oogata Fukuju) were planted followed by cultivating until three to five first leaves (true leaves) appeared.

[2] = system: Puccinia recondita; experiment: Test Example E: Brown rust on wheat; conditions: for Test E control value (brown rust on wheat): preventive, control value class; for Test E (control value class, brown rust on wheat): in vivo
Description: [Test Example E] Brown Rust on Wheat

[3] = system: Alternaia brassicicola; experiment: Test Example C: Alternaria sooty spot on cabbage; conditions: for Test C control value (Alternaria sooty spot on cabbage): preventive, control value class; for Test C (control value class): Alternaria sooty spot on cabbage; for Test C (control value class, Alternaria sooty spot on cabbage): in vivo
Description: [Test Example C] Alternaria Sooty Spot on Cabbage
Seeds of a test plant (cabbage variety: Shikidori) were planted followed by cultivating until the cotyledons extended.

[4] = system: Blumeria graminis f sp. hordei; experiment: Test Example D: Powdery mildew on barley; conditions: for Test D control value (powdery mildew on barley): preventive, control value class; for Test D (control value class, powdery mildew on barley): in vivo
Description: [Test Example D] Powdery Mildew on Barley
After the sprayed dilutions were dried, conidia of Blumeria graminis f sp. hordei were inoculated to the plants by shaking off.

[5] = system: Plasmopara viticola; experiment: Test Example G: Downy mildew on vine; conditions: for Test G control value (downy mildew on vine): 250 ppm spray (2.5 ml/pot), preventive, control value class; for Test G (control value class): 250 ppm spray; for Test G (control value class, downy mildew on vine): 250 ppm, sprayed 2.5 ml/pot before inoculation
Description: [Test Example G] Downy Mildew on Vine
Seeds of a test plant (grape variety: Neomuscat) were planted followed by cultivating until three to four first leaves appeared. […] After the sprayed dilutions were dried, a zoosporangia suspension (1-2×10^4 zoosporangia/ml) of Plasmopara viticola was inoculated to the plants by spraying.

[6] = Gray mold on tomato, control value=100{1-(n/3)}
[7] = Brown rust on wheat, control value=100{1-(n/3)}
[8] = Powdery mildew on barley, control value=100{1-(n/3)}
[9] = Downy mildew on vine, 2.5 ml/pot, evaluated 7-10 days after inoculation
[10] = gray mold on tomato, Botrytis cinerea, 250 ppm spray
[11] = brown rust on wheat, Puccinia recondita, 250 ppm spray
[12] = powdery mildew on barley, 250 ppm spray
[13] = downy mildew on vine, Plasmopara viticola, 7-10 days after inoculation
[14] = evaluated 7-10 days after inoculation

CCn1c(-c2c(F)cccc2F)c(-c2ccc(Br)cc2)ccc1=O [Compound 292]
Test B control value (gray mold on tomato) ([1]; 250 ppm spray): H (H shows more than 50% of control values)
Test E control value (brown rust on wheat) ([2]; 250 ppm spray): H (H shows more than 50% of control values)
Test C control value (Alternaria sooty spot on cabbage) ([3]; 250 ppm spray): H (H shows more than 50% of control values)
Test D control value (powdery mildew on barley) ([4]; 250 ppm spray): H (H shows more than 50% of control values)
Test G control value (downy mildew on vine) ([5]; 7-10 days after inoculation): L (L shows 50% or less of control values)

CCn1c(-c2c(F)cccc2F)c(-c2cc(OC)ccc2Cl)cc(C2CC2)c1=O [Compound 352]
Test B control value (gray mold on tomato) ([1]; 250 ppm spray): H (H shows more than 50% of control values)
Test E control value (brown rust on wheat) ([2]; 250 ppm spray): L (L shows 50% or less of control values)
Test C control value (Alternaria sooty spot on cabbage) ([3]; 250 ppm spray): H (H shows more than 50% of control values)
Test D control value (powdery mildew on barley) ([4]; 250 ppm spray): L (L shows 50% or less of control values)
Test G control value (downy mildew on vine) ([5]; 7-10 days after inoculation): L (L shows 50% or less of control values)

CCn1c(-c2c(F)cc(F)cc2F)c(-c2ccccc2)cc(Br)c1=O [Compound 774]
Test B (control value class) [1, 6]: H (H shows more than 50% of control values)
Test E (control value class) [2, 7]: H (H shows more than 50% of control values)
Test C (control value class) ([3]; control value=100{1-(n/3)}): H (H shows more than 50% of control values)
Test D (control value class) [4, 8]: H (H shows more than 50% of control values)
Test G (control value class) [5, 9]: L (L shows 50% or less of control values)

Cn1c(-c2c(F)cc(F)cc2F)c(-c2ccccc2)cc(Br)c1=O [Compound 780]
Test B (control value class) [1, 6]: H (H shows more than 50% of control values)
Test E (control value class) [2, 7]: H (H shows more than 50% of control values)
Test C (control value class) ([3]; control value=100{1-(n/3)}): H (H shows more than 50% of control values)
Test D (control value class) [4, 8]: H (H shows more than 50% of control values)
Test G (control value class) [5, 9]: L (L shows 50% or less of control values)

CCn1c(-c2c(F)cccc2F)c(-c2ccccc2SCCl)cc(Cl)c1=O [Compound 210]
Test B control value (gray mold on tomato) ([1]; 250 ppm spray): H (H shows more than 50% of control values)
Test E control value (brown rust on wheat) ([2]; 250 ppm spray): L (L shows 50% or less of control values)
Test C control value (Alternaria sooty spot on cabbage) ([3]; 250 ppm spray): H (H shows more than 50% of control values)
Test D control value (powdery mildew on barley) ([4]; 250 ppm spray): L (L shows 50% or less of control values)
Test G control value (downy mildew on vine) ([5]; 7-10 days after inoculation): L (L shows 50% or less of control values)

Cn1c(-c2c(F)cc(F)cc2F)c(-c2ccccc2F)cc(Br)c1=O [Compound 545]
Test B (control value class) [1, 10]: H (H shows more than 50% of control values)
Test E (control value class) [2, 11]: H (H shows more than 50% of control values)
Test C (control value class) ([3]; 250 ppm spray): H (H shows more than 50% of control values)
Test D (control value class) [4, 12]: H (H shows more than 50% of control values)
Test G (control value class) [5, 13]: L (L shows 50% or less of control values)

COc1ccc(Cl)c(-c2cc(Cl)c(=O)n(CC(F)(F)F)c2-c2c(F)cccc2F)c1 [Compound 410]
Test B (control value class) [1, 10]: H (H shows more than 50% of control values)
Test E (control value class) [2, 11]: H (H shows more than 50% of control values)
Test C (control value class) ([3]; 250 ppm spray): H (H shows more than 50% of control values)
Test D (control value class) [4, 12]: H (H shows more than 50% of control values)
Test G (control value class) [5, 13]: L (L shows 50% or less of control values)

CCn1c(-c2c(F)cc(F)cc2F)c(-c2cccc(OCOC)c2Cl)cc(Cl)c1=O [Compound 811]
Test B (control value class) [1, 6]: H (H shows more than 50% of control values)
Test E (control value class) [2, 7]: H (H shows more than 50% of control values)
Test C (control value class) ([3]; control value=100{1-(n/3)}): H (H shows more than 50% of control values)
Test D (control value class) [4, 8]: L (L shows 50% or less of control values)
Test G (control value class) [5, 9]: L (L shows 50% or less of control values)

CCn1c(-c2c(F)cc(F)cc2F)c(-c2cccc(F)c2C)cc(Br)c1=O [Compound 682]
Test B (control value class, gray mold on tomato) [1]: H (H shows more than 50% of control values)
Test E (control value class, brown rust on wheat) [2]: H (H shows more than 50% of control values)
Test C (control value class, Alternaria sooty spot on cabbage) [3]: H (H shows more than 50% of control values)
Test D (control value class, powdery mildew on barley) [4]: H (H shows more than 50% of control values)
Test G (control value class, downy mildew on vine) [5, 14]: L (L shows 50% or less of control values)

CCn1c(-c2c(F)cccc2F)c(-c2ccc(Cl)cc2)ccc1=O [Compound 265]
Test B control value (gray mold on tomato) ([1]; 250 ppm spray): H (H shows more than 50% of control values)
Test E control value (brown rust on wheat) ([2]; 250 ppm spray): H (H shows more than 50% of control values)
Test C control value (Alternaria sooty spot on cabbage) ([3]; 250 ppm spray): H (H shows more than 50% of control values)
Test D control value (powdery mildew on barley) ([4]; 250 ppm spray): H (H shows more than 50% of control values)
Test G control value (downy mildew on vine) ([5]; 7-10 days after inoculation): H (H shows more than 50% of control values)

CCn1c(-c2c(F)cc(Br)cc2F)c(-c2cc(F)ccc2Cl)cc(Cl)c1=O [Compound 706]
Test B (control value class, gray mold on tomato) [1]: L (L shows 50% or less of control values)
Test E (control value class, brown rust on wheat) [2]: H (H shows more than 50% of control values)
Test C (control value class, Alternaria sooty spot on cabbage) [3]: L (L shows 50% or less of control values)
Test D (control value class, powdery mildew on barley) [4]: L (L shows 50% or less of control values)
Test G (control value class, downy mildew on vine) [5, 14]: L (L shows 50% or less of control values)

Cn1c(-c2c(F)cccc2F)c(-c2cccc(Cl)c2F)ccc1=O [Compound 474]
Test B (control value class) [1, 10]: H (H shows more than 50% of control values)
Test E (control value class) [2, 11]: H (H shows more than 50% of control values)
Test C (control value class) ([3]; 250 ppm spray): H (H shows more than 50% of control values)
Test D (control value class) [4, 12]: H (H shows more than 50% of control values)
Test G (control value class) [5, 13]: L (L shows 50% or less of control values)

CCCn1c(-c2c(F)cccc2F)c(-c2cc(OC)ccc2Cl)cc(Br)c1=O [Compound 401]
Test B (control value class) [1, 10]: H (H shows more than 50% of control values)
Test E (control value class) [2, 11]: H (H shows more than 50% of control values)
Test C (control value class) ([3]; 250 ppm spray): H (H shows more than 50% of control values)
Test D (control value class) [4, 12]: H (H shows more than 50% of control values)
Test G (control value class) [5, 13]: L (L shows 50% or less of control values)

CCn1c(-c2c(F)cc(F)cc2F)c(-c2cc(OC)ccc2Cl)cc(C)c1=O [Compound 769]
Test B (control value class) [1, 6]: H (H shows more than 50% of control values)
Test E (control value class) [2, 7]: H (H shows more than 50% of control values)
Test C (control value class) ([3]; control value=100{1-(n/3)}): H (H shows more than 50% of control values)
Test D (control value class) [4, 8]: H (H shows more than 50% of control values)
Test G (control value class) [5, 9]: L (L shows 50% or less of control values)

CCCCN1C(=O)CCC(c2cc(OC)ccc2Cl)=C1c1c(F)cccc1F [Compound 390]
Test B (control value class) [1, 10]: L (L shows 50% or less of control values)
Test E (control value class) [2, 11]: L (L shows 50% or less of control values)
Test C (control value class) ([3]; 250 ppm spray): L (L shows 50% or less of control values)
Test D (control value class) [4, 12]: H (H shows more than 50% of control values)
Test G (control value class) [5, 13]: L (L shows 50% or less of control values)

Cn1c(-c2c(F)cc(F)cc2F)c(-c2cc(F)ccc2Cl)cc(Cl)c1=O [Compound 340]
Test B control value (gray mold on tomato) ([1]; 250 ppm spray): H (H shows more than 50% of control values)
Test E control value (brown rust on wheat) ([2]; 250 ppm spray): H (H shows more than 50% of control values)
Test C control value (Alternaria sooty spot on cabbage) ([3]; 250 ppm spray): H (H shows more than 50% of control values)
Test D control value (powdery mildew on barley) ([4]; 250 ppm spray): H (H shows more than 50% of control values)
Test G control value (downy mildew on vine) ([5]; 7-10 days after inoculation): L (L shows 50% or less of control values)

COc1ccc(Cl)c(-c2cc(Cl)c(=O)n(C(C)C)c2-c2c(F)cccc2F)c1 [Compound 413]
Test B (control value class) [1, 10]: H (H shows more than 50% of control values)
Test E (control value class) [2, 11]: H (H shows more than 50% of control values)
Test C (control value class) ([3]; 250 ppm spray): L (L shows 50% or less of control values)
Test D (control value class) [4, 12]: H (H shows more than 50% of control values)
Test G (control value class) [5, 13]: L (L shows 50% or less of control values)
